Measurements as given in patent US5824771A, “Cyclic CRF agonists” (The Salk Institute for Biological Studies, priority 1997, dated 1998).
Part of at least one peptide drawing is inferred or uncertain, most often the ends. Bridge positions count the residues as written; N and C are the ends. Square brackets hold non-standard residues; d marks the D form. Peptide text beside a SMILES is read from it. Nle = CCCC[C@H](N)C(=O)O

Test system: rat anterior pituitary cells
Experiment: In vitro stimulation of ACTH and β-endorphin secretion by cultured rat pituitary cells, potency compared with oCRF (Standard) or r/hCRF
Assay type: cell-based
Conditions: for in vitro potency to stimulate secretion of ACTH relative to the Standard: relative to the laboratory Standard (synthetic oCRF); for in vitro biopotency, comparison in words: compared with the Standard or with a named analog
Experimental: The cyclic CRF agonists are examined for their effects on the secretion of ACTH and β-endorphin in vitro and also in vivo. […] In vivo testing is carried out using the general procedure set forth in C. Rivier et al., Science, 218, 377 (1982).

[1] = cultured rat pituitary cells, limits in parentheses

CCCC[C@H](NC(=O)[C@H](CCC(=O)O)NC(=O)[C@H](CC(C)C)NC(=O)[C@@H](NC(=O)[C@H](CCC(=O)O)NC(=O)[C@H](CCCNC(=N)N)NC(=O)[C@H](CC(C)C)NC(=O)[C@H](CC(C)C)NC(=O)[C@H](Cc1c[nH]cn1)NC(=O)[C@@H](Cc1ccccc1)NC(=O)[C@@H](NC(=O)[C@H](CC(C)C)NC(=O)[C@H](CC(=O)O)NC(=O)[C@H](CC(C)C)NC(=O)C(NC)NC(C)=O)[C@@H](C)O)C(C)C)C(=O)N[C@@H](C)C(=O)N[C@@H](CCCNC(=N)N)C(=O)N[C@@H](C)C(=O)N[C@@H](CCC(=O)O)C(=O)N[C@@H](CCC(N)=O)C(=O)N[C@@H](CC(C)C)C(=O)N[C@@H](C)C(=O)N[C@@H](CCC(N)=O)C(=O)N[C@H]1CCC(=O)NCCCC[C@@H](C(=O)N[C@@H](CC(N)=O)C(=O)N[C@@H](CCCNC(=N)N)C(=O)N[C@@H](CCCCN)C(=O)N[C@@H](CC(C)C)C(=O)N[C@@H](CCCC)C(=O)N[C@@H](CCC(=O)O)C(=O)N[C@H](C(=O)N[C@H](C(N)=O)[C@@H](C)CC)[C@@H](C)CC)NC(=O)[C@H](Cc2c[nH]cn2)NC(=O)[C@H](C)NC1=O (single isomer, unassigned) [Example 19 A fraction 1]
in vitro potency to stimulate secretion of ACTH relative to the Standard [1]: about 1.9 times

CCCC[C@H](NC(=O)[C@H](CCC(=O)O)NC(=O)[C@H](CC(C)C)NC(=O)[C@@H](NC(=O)[C@H](CCC(=O)O)NC(=O)[C@H](CCCNC(=N)N)NC(=O)[C@H](CC(C)C)NC(=O)[C@H](CC(C)C)NC(=O)[C@H](Cc1c[nH]cn1)NC(=O)[C@@H](Cc1ccccc1)NC(=O)[C@@H](NC(=O)[C@H](CC(C)C)NC(=O)[C@H](CC(=O)O)NC(=O)[C@H](CC(C)C)NC(=O)C(NC)NC(C)=O)[C@@H](C)O)C(C)C)C(=O)N[C@@H](C)C(=O)N[C@@H](CCCNC(=N)N)C(=O)N[C@@H](C)C(=O)N[C@@H](CCC(=O)O)C(=O)N[C@@H](CCC(N)=O)C(=O)N[C@@H](CC(C)C)C(=O)N[C@@H](C)C(=O)N[C@@H](CCC(N)=O)C(=O)N[C@H]1CCC(=O)NCCCC[C@@H](C(=O)N[C@@H](CC(N)=O)C(=O)N[C@@H](CCCNC(=N)N)C(=O)N[C@@H](CCCCN)C(=O)N[C@@H](CC(C)C)C(=O)N[C@@H](CCCC)C(=O)N[C@@H](CCC(=O)O)C(=O)N[C@H](C(=O)N[C@H](C(N)=O)[C@@H](C)CC)[C@@H](C)CC)NC(=O)[C@H](Cc2c[nH]cn2)NC(=O)[C@H](C)NC1=O (single isomer, unassigned) [Example 19 A fraction 2]
in vitro potency to stimulate secretion of ACTH relative to the Standard [1]: about 0.28 times

CCCC[C@H](NC(=O)[C@H](CCC(=O)O)NC(=O)[C@H](CC(C)C)NC(=O)[C@H](CCCC)NC(=O)[C@H](CCC(=O)O)NC(=O)[C@H](CCCNC(=N)N)NC(=O)[C@H](CC(C)C)NC(=O)[C@H](CC(C)C)NC(=O)[C@H](Cc1c[nH]cn1)NC(=O)[C@@H](Cc1ccccc1)NC(=O)[C@@H](NC(=O)[C@H](CC(C)C)NC(=O)[C@H](CC(=O)O)NC(=O)[C@H](CC(C)C)NC(=O)[C@H](CO)NC(=O)[C@@H](NC(=O)[C@@H]1CCCN1C(=O)[C@@H]1CCCN1C(C)=O)[C@@H](C)CC)[C@@H](C)O)C(=O)N[C@@H](C)C(=O)N[C@@H](CCCCN)C(=O)N[C@@H](C)C(=O)N[C@@H](CCC(=O)O)C(=O)N[C@@H](CCC(N)=O)C(=O)N[C@@H](CCC(=O)O)C(=O)N[C@@H](C)C(=O)N[C@@H](CCC(=O)O)C(=O)N[C@H]1CCC(=O)NCCCC[C@@H](C(=O)N[C@@H](CC(N)=O)C(=O)N[C@@H](CCCNC(=N)N)C(=O)N[C@@H](CC(C)C)C(=O)N[C@@H](CC(C)C)C(=O)N[C@@H](CC(C)C)C(=O)N[C@@H](CCC(=O)O)C(=O)N[C@@H](CCC(=O)O)C(=O)N[C@@H](C)C(N)=O)NC(=O)[C@@H](Cc2c[nH]cn2)NC(=O)[C@H](C)NC1=O [Example 3 A D-His^32 cyclic analog] (Ac-PPISLDLT[dF]HLLRE[Nle]LE[Nle]AKAEQEAEEA[dH]KNRLLLEEA-NH2; lactam 27-30)
in vitro biopotency, comparison in words: significantly increased biopotency compared to the linear peptide

CCCC[C@H](NC(=O)[C@H](CCC(=O)O)NC(=O)[C@H](CC(C)C)NC(=O)[C@H](CCCC)NC(=O)[C@H](CCC(=O)O)NC(=O)[C@H](CCCNC(=N)N)NC(=O)[C@H](CC(C)C)NC(=O)[C@H](CC(C)C)NC(=O)[C@H](Cc1c[nH]cn1)NC(=O)[C@@H](Cc1ccccc1)NC(=O)[C@@H](NC(=O)[C@H](CC(C)C)NC(=O)[C@H](CC(=O)O)NC(=O)[C@H](CC(C)C)NC(=O)[C@H](CO)NC(=O)[C@@H](NC(=O)[C@@H]1CCCN1C(=O)[C@@H]1CCCN1C(C)=O)[C@@H](C)CC)[C@@H](C)O)C(=O)N[C@@H](C)C(=O)N[C@@H](CCCCN)C(=O)N[C@@H](C)C(=O)N[C@@H](CCC(=O)O)C(=O)N[C@@H](CCC(N)=O)C(=O)N[C@@H](CCC(=O)O)C(=O)N[C@@H](C)C(=O)N[C@@H](CCC(=O)O)C(=O)N[C@@H](CCC(=O)O)C(=O)N[C@@H](C)C(=O)N[C@H](C)C(=O)N[C@@H](CCCCN)C(=O)N[C@@H](CC(N)=O)C(=O)N[C@@H](CCCNC(=N)N)C(=O)N[C@@H](CC(C)C)C(=O)N[C@@H](CC(C)C)C(=O)N[C@@H](CC(C)C)C(=O)N[C@@H](CCC(=O)O)C(=O)N[C@@H](CCC(=O)O)C(=O)N[C@@H](C)C(N)=O [Example 3 A linear peptide] (Ac-PPISLDLT[dF]HLLRE[Nle]LE[Nle]AKAEQEAEEA[dA]KNRLLLEEA-NH2)
in vitro biopotency, comparison in words: bioactivity but of a very significantly lesser degree

CCCC[C@H](NC(=O)[C@H](CCC(=O)O)NC(=O)[C@@H](NC(=O)[C@H](CCCC)NC(=O)[C@H](CC(N)=O)NC(=O)[C@H](CCCNC(=N)N)NC(=O)[C@H](CC(C)C)NC(=O)[C@H](CC(C)C)NC(=O)[C@H](Cc1c[nH]cn1)NC(=O)[C@@H](Cc1ccccc1)NC(=O)[C@@H](NC(=O)[C@H](CC(C)C)NC(=O)[C@H](CC(=O)O)NC(=O)[C@@H](NC(=O)[C@H](CO)NC(=O)[C@@H](NC(=O)[C@@H]1CCCN1C(=O)[C@@H]1CCCN1C(C)=O)[C@@H](C)CC)[C@@H](C)CC)[C@@H](C)O)[C@@H](C)CC)C(=O)N[C@@H](C)C(=O)N[C@@H](CCCNC(=N)N)C(=O)N[C@@H](CC(N)=O)C(=O)N[C@@H](CCC(=O)O)C(=O)N[C@@H](CC(N)=O)C(=O)N[C@@H](CCC(N)=O)C(=O)N[C@@H](CCCNC(=N)N)C(=O)N[C@@H](CCC(=O)O)C(=O)N[C@H]1CCC(=O)NCCCC[C@@H](C(=O)N[C@@H](CC(N)=O)C(=O)N[C@@H](CCCNC(=N)N)C(=O)N[C@@H](CCCCN)C(=O)N[C@@H](Cc2ccc(O)cc2)C(=O)N[C@@H](CC(C)C)C(=O)N[C@@H](CC(=O)O)C(=O)N[C@@H](CCC(=O)O)C(=O)N[C@H](C(N)=O)C(C)C)NC(=O)[C@@H](Cc2c[nH]cn2)NC(=O)[C@H](C)NC1=O [Example 3 F D-His^32 analog] (Ac-PPISIDLT[dF]HLLRN[Nle]IE[Nle]ARNENQREEA[dH]KNRKYLDEV-NH2; lactam 27-30)
in vitro biopotency, comparison in words: significantly increases biopotency compared to the Standard

CCCC[C@H](NC(=O)[C@H](CCC(=O)O)NC(=O)[C@@H](NC(=O)[C@H](CCCC)NC(=O)[C@H](CC(N)=O)NC(=O)[C@H](CCCNC(=N)N)NC(=O)[C@H](CC(C)C)NC(=O)[C@H](CC(C)C)NC(=O)[C@H](Cc1c[nH]cn1)NC(=O)[C@@H](Cc1ccccc1)NC(=O)[C@@H](NC(=O)[C@H](CC(C)C)NC(=O)[C@H](CC(=O)O)NC(=O)[C@@H](NC(=O)[C@H](CO)NC(=O)[C@@H](NC(=O)[C@@H]1CCCN1C(=O)[C@@H]1CCCN1C(C)=O)[C@@H](C)CC)[C@@H](C)CC)[C@@H](C)O)[C@@H](C)CC)C(=O)N[C@@H](C)C(=O)N[C@@H](CCCNC(=N)N)C(=O)N[C@@H](CC(N)=O)C(=O)N[C@@H](CCC(=O)O)C(=O)N[C@@H](CC(N)=O)C(=O)N[C@@H](CCC(N)=O)C(=O)N[C@@H](CCCNC(=N)N)C(=O)N[C@@H](CCC(=O)O)C(=O)N[C@@H](CCC(=O)O)C(=O)N[C@@H](C)C(=O)N[C@H](C)C(=O)N[C@@H](CCCCN)C(=O)N[C@@H](CC(N)=O)C(=O)N[C@@H](CCCNC(=N)N)C(=O)N[C@@H](CCCCN)C(=O)N[C@@H](Cc1ccc(O)cc1)C(=O)N[C@@H](CC(C)C)C(=O)N[C@@H](CC(=O)O)C(=O)N[C@@H](CCC(=O)O)C(=O)N[C@H](C(N)=O)C(C)C [Example 3 F linear counterpart] (Ac-PPISIDLT[dF]HLLRN[Nle]IE[Nle]ARNENQREEA[dA]KNRKYLDEV-NH2)
stimulation of secretion of ACTH and β-END-LI (testing by the general procedure), in words (general procedure of Example 1): stimulates the secretion of ACTH and β-END-LI
biopotency as percent of that of the cyclic compound (linear counterpart versus cyclic peptide of the same example): about 13%

CCCC[C@H](NC(=O)[C@H](CCC(=O)O)NC(=O)[C@@H](NC(=O)[C@H](CCCC)NC(=O)[C@H](CC(N)=O)NC(=O)[C@H](CCCNC(=N)N)NC(=O)[C@H](CC(C)C)NC(=O)[C@H](CC(C)C)NC(=O)[C@H](Cc1c[nH]cn1)NC(=O)[C@@H](Cc1ccccc1)NC(=O)[C@@H](NC(=O)[C@H](CC(C)C)NC(=O)[C@H](CC(=O)O)NC(=O)[C@@H](NC(=O)[C@H](CO)NC(=O)[C@@H](NC(=O)[C@@H]1CCCN1C(=O)[C@@H]1CCCN1C(C)=O)[C@@H](C)CC)[C@@H](C)CC)[C@@H](C)O)[C@@H](C)CC)C(=O)N[C@@H](C)C(=O)N[C@@H](CCCNC(=N)N)C(=O)N[C@@H](CC(N)=O)C(=O)N[C@@H](CCC(=O)O)C(=O)N[C@@H](CC(N)=O)C(=O)N[C@@H](CCC(N)=O)C(=O)N[C@@H](CCCNC(=N)N)C(=O)N[C@@H](CCC(=O)O)C(=O)N[C@H]1CCC(=O)NCCCC[C@@H](C(=O)N[C@@H](CC(N)=O)C(=O)N[C@@H](CCCNC(=N)N)C(=O)N[C@@H](CCCCN)C(=O)N[C@@H](Cc2ccc(O)cc2)C(=O)N[C@@H](CC(C)C)C(=O)N[C@@H](CC(=O)O)C(=O)N[C@@H](CCC(=O)O)C(=O)N[C@H](C(N)=O)C(C)C)NC(=O)[C@@H](C)NC(=O)[C@H](C)NC1=O [Example 3 F, (cyclo 30-33)[Ac-Pro^4, D-Phe^12, Nle^18,21, Glu^30, D-Ala^32, Lys^33]-carp urotensin(4-41)] (Ac-PPISIDLT[dF]HLLRN[Nle]IE[Nle]ARNENQREEA[dA]KNRKYLDEV-NH2; lactam 27-30)
in vitro potency to stimulate secretion of ACTH relative to r/hCRF (rat CRF standard) (relative to r/hCRF / native rCRF standard, cultured rat pituitary cells, limits in parentheses): 16.90 times
